Data on 3 molecules can be found in patent publication US20250289861A1 (IMMUNOFORGE, published 2025).

Test [1] addresses IGF-1R on HEK 293 IGF-1R cells (PathHunter HEK293 IGF-1R bioassay kit). Description: cell-based or functional assay.
Test [2] concerns the target GLP1R on CHO-K1 GLP1R cells (cAMP Hunter Liraglutide bioassay kit). The experiment in a line: cell-based or functional assay.

B1: PF1802_M010 (GLP1-Fc-mut.IGF1-TfR) (Fc fusion)
chain: HGEGTFTSDVSSYLEEQAAKEFIAWLVKGGGGSAPAPGGGGS[letters of human IgG1 Fc with changes left out]GGGGSGGGGSGGGGSGGGGSGAHSGPATLCGAELVDALQFVCGDRGFYFNKPTGYGSSSRRAPQTGIVDECCARSCDLRRLEMYCAPLKPTKSTGSAPAPGGGGSTHRPPMWSPVWP
For the molecule B1, the “EC50 (nM), IGF-1R phosphorylation assay (PathHunter HEK293 IGF-1R bioassay kit)” value (shortened to “EC50 (nM), IGF-1R phosphorylation assay”) in test [1] was 9.91 nM. In addition, the “EC50 (pM), cAMP assay on CHO-K1 GLP1R cells (cAMP Hunter Liraglutide bioassay kit)” value (“EC50 (pM), cAMP assay” for short) in test [2] amounted to 6 pM.

B2: PF1802_M011 (GLP1-Fc) (Fc fusion)
chain: HGEGTFTSDVSSYLEEQAAKEFIAWLVKGGGGSAPAPGGGGS[letters of human IgG1 Fc with changes left out]
Regarding B2, the “EC50 (nM), IGF-1R phosphorylation assay” value in test [1] is more than 2000 nM. In test [2], the “EC50 (pM), cAMP assay” value was 11 pM.

B3: PF1802_M008 (GLP1-Fc-mut.IGF1) (Fc fusion)
chain: HGEGTFTSDVSSYLEEQAAKEFIAWLVKGGGGSAPAPGGGGS[letters of human IgG1 Fc with changes left out]GGGGSGGGGSGGGGSGGGGSGAHSGPATLCGAELVDALQFVCGDRGFYFNKPTGYGSSSRRAPQTGIVDECCARSCDLRRLEMYCAPLKPTKST
In the case of B3, the “EC50 (nM), IGF-1R phosphorylation assay” value in test [1] was determined as 13.9 nM. In test [2], the “EC50 (pM), cAMP assay” value is 20 pM.
